Experimental data from patent US20240209093A1 (I MAB BIOPHARMA, published 2024).

Target: T1, Tag1-CD47 (UniProt Q08722 fragment)
T1 construct: Bought kit reagent
Assay: HTRF CD47/SIRPα binding assay (Cisbio): blocking of Tag2-SIRPa binding to Tag1-CD47; axis numbers -3 to 3 read as log10 of nM
Source text: Fluorescence data were read on a PerkinElmer Envision plate reader using laser as light source.

Tag1-CD47, sequence (Q08722 19-139 limits assumed): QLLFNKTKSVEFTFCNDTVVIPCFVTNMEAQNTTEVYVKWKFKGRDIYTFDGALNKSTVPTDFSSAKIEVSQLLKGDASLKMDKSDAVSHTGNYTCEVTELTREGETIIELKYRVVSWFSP

B1: 13H3-IgG1-93VH-6 (bispecific antibody)
heavy: EVQLVESGGGLVKPGGSLRLSCAASGLTFERAWMNWVRQAPGKGLEWVGRIKRKTDGETTDYAAPVKGRFSISRDDSKNTLYLQMNSLKTEDTAVYYCAGSNRAFDIWGQGTMVTVSS[human IgG1 constant region not printed]GGGGSGGGGSGGGGSGGGGSEVQLVESGGGLVQPGGSLRLSCAASGFTFTFRHYVMGWFRQAPGKEREFVAAISWSGSGSYYADSVKGRFTISRDNSKNTVYLQMNSLRAEDTAVYYCAADMTTRMSQASREYDYWGQGTLVTVSS
light: DIVMTQSPDSLAVSLGERATINCKSSQSVLYAGNNRNYLAWYQQKPGQPPKLLINQASTRASGVPDRFSGSGSGTEFTLIISSLQAEDVAIYYCQQYYTPPLAFGGGTKLEIKRTVAAPSVFIFPPSDEQLKSGTASVVCLLNNFYPREAKVQWKVDNALQSGNSQESVTEQDSKDSTYSLSSTLTLSKADYEKHKVYACEVTHQGLSSPVTKSFNRGEC
notes: Symmetric 'two to two' anti-CD47/PD-L1 bispecific; 93-VH-6 at the C-terminus of the heavy chain
IC50 (read off the curve): ~800 pM
